Assay results published in PubChem BioAssay AID493208 (National Center for Advancing Translational Sciences (NCATS), 2011).
The campaign covered roughly 44,000 compounds. About 340 (0.77%) were called active. Not shown: some 5% with an inconclusive outcome. The call rests on the fitted dose curve; in most records, active means well fitted inhibition curve with a large enough effect; inconclusive means small, poorly fitted or top-dose-only effect; inactive means flat fitted curve, though single readings scatter. The list shows a part of the results.

Experiment: Acumen qHTS Assay for Inhibitors of the mTORC1 Signaling Pathway in MEF (Tsc2-/-, p53-/-) Cells: Sytravon;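 further: plate controls were DMSO for no effect and rapamycin for full effect; nearly all actives have a fitted effect of over 50% in size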
Conditions: phospho-rpS6 immunofluorescence/PI, 24 h; series mostly up to 38.3 µM; activity change, negative = inhibition: at the top concentration
In short: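 Immunofluorescence of rpS6 phosphorylation in Tsc2-/-, p53-/- MEFs after 24 h compound exposure, normalized to propidium iodide signal. Activity is expressed as % positive cells, thresholded with 7.5 nM rapamycin.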

Row | Compound | activity change, negative = inhibition
1 | COc1ccccc1CCNC(=O)C(=O)NCC(c1ccc2c(c1)OCO2)N1CCOCC1 (centres undefined) | inactive: -2.01%
2 | Cc1ccc2oc3c(c(=O)c2c1)C(c1ccc(F)cc1)N(Cc1ccc2c(c1)OCO2)C3=O (centres undefined) | inactive: -1.93%
3 | COc1cccc(CNC(=O)C(=O)Nc2c3c(nn2-c2ccccc2)CSC3)c1 | inactive: -0.0434%
4 | CCN(C(=O)C1CCN(S(=O)(=O)c2ccc3c(c2)CCCN3C(C)=O)CC1)c1cccc(C)c1 | inactive: -4.84%
5 | COc1ccccc1OCC(=O)NCC(c1ccc(Cl)cc1)N1CCCCC1 (centres undefined) | inactive: -10.9%
6 | Cc1c(Cl)cccc1NC(=O)Cn1c(CCC(=O)O)ccc1-c1cccs1 | inactive: 5.65%
7 | CCOC(=O)c1c(NC(C)=O)c2c3c(sc2n1Cc1nc(-c2cccc(Cl)c2)oc1C)CCCC3 | inactive: -6.37%
8 | Cc1c(-c2ccc(Br)cc2)c(=O)oc2ccc(OC(=O)N3CCOCC3)cc12 | inactive: -12.7%
9 | COc1ccc(OC)c(-c2nnc3n(Cc4ccc(C)cc4)c(=O)c4ccccc4n23)c1 | inactive: 1.13%
10 | CCN(CC)C(=O)CSc1nc(-c2ccccc2F)nc2c1Cc1c(CO)cnc(C)c1O2 | inactive: -22.2%
11 | CC(C)(C)OC(=O)N1CCC(c2c(C(=O)N3CCCCC3)cnn2-c2ccc(Cl)cc2)CC1 | inactive: 5.01%
12 | CCOc1cc(C(=O)NCCc2csc3nc(-c4ccc(C)cc4)nn23)cc(OCC)c1OCC | inactive: -0.174%
13 | COC(=O)c1ccccc1NC(=O)CSc1nc2ccsc2c(=O)n1CCC(C)C | inactive: -1.57%
14 | COc1ccc(Cc2nc3ccccc3[nH]c2=O)cc1 | inactive: -12.9%
15 | C=Cc1ccc(Cn2c(C)c(CNCc3cccc(Br)c3)c(C(=O)O)c2C)cc1 | inactive: -2.05%
16 | Cc1cccc(Cn2c(CNS(=O)(=O)c3ccc4c(c3)CCCC4)nc3cccnc32)c1 | inactive: 1.29%
17 | Cc1c(Cl)cccc1-c1ccc(C(=O)Nc2ccc(F)cc2)o1 | inactive: 6.01%
18 | CCOC(=O)c1c(S(=O)(=O)N2CCCC(C(=O)NCc3ccc(Cl)cc3)C2)c(C)n(C)c1C (centres undefined) | inactive: -1.45%
19 | COc1ccc(F)cc1S(=O)(=O)NCCc1csc2nc(-c3cccc(C)c3)nn12 | inactive: -5.07%
20 | COC(=O)c1ccc(OCC2c3cc(OC)c(OC)cc3CCN2C(=O)COc2ccc(Cl)cc2)cc1 (centres undefined) | inactive: 8.87%
21 | O=C(c1ccccc1Cl)N1c2ncnn2C2(CCCCC2)[C@@H]2CCCC[C@@H]21 | inactive: -1.17%
22 | CCOC(=O)c1noc2ncn(CC(=O)Nc3ccc(C)c(F)c3)c(=O)c12 | inactive: 0.0694%
23 | Cc1cccc(NC(=O)CCS(=O)(=O)c2ccc3c(c2)n(C)c(=O)c(=O)n3C)c1C | inactive: -13.4%
24 | CCOC(=O)C1CCCN(C(=O)c2nn(-c3ccc(OC)cc3)c(=O)c3c2c2ccccc2n3C)C1 (centres undefined) | inactive: 4.98%

Row | Compound | activity change, negative = inhibition
25 | Nc1nc(Nc2ccccc2F)sc1C(=O)c1ccc(Cl)cc1 | inactive: -2.39%
26 | CCc1cccc(NC(=O)C2CCN(C(=O)c3cnn(-c4ccccc4)c3-n3cccc3)CC2)c1 | inactive: -0.225%
27 | Cc1ccc(-n2c(=O)c3c(C)c(C(=O)N(C)C)sc3n(CC(=O)C(C)(C)C)c2=O)cc1C | inactive: -3.59%
28 | O=c1cc(-c2ccccc2)n2c(SCc3ccccc3)nnc2[nH]1 | inactive: 0.0486%
29 | Cc1c(C(=O)N(Cc2ccccc2F)C2CCS(=O)(=O)C2)oc2ccc(F)cc12 (centres undefined) | inactive: 0%
30 | COc1ccc(N2CC(NC(=O)COc3ccccc3)CC2=O)cc1OC (centres undefined) | inactive: -5.77%
31 | Cn1c(=O)c2c(nc(NCc3ccccc3)n2Cc2ccccc2)n(C)c1=O | inactive: -6.69%
32 | Cn1c(=O)c2c(SCC(=O)NCc3ccco3)nc(-c3ccccc3)nc2n(C)c1=O | inactive: -5.07%
33 | CN(c1ncnc2onc(-c3cccc(Cl)c3)c12)C1CCCCC1 | inactive: -6.52%
34 | Cc1cccc(CNC(=O)Cn2nc(C)n3c(cc4cc(F)ccc43)c2=O)c1 | inactive: -0.558%
35 | CCc1ccc(-n2nc3cc(C)c(NC(=O)c4cccc5ccccc45)cc3n2)cc1 | inactive: -5.61%
36 | CC(C)CN(CCCNC(=O)Cn1ncc2c3ccccc3n(C)c2c1=O)CC(C)C | inactive: -0.225%
37 | COc1ccc(Cl)cc1NC(=O)CCS(=O)(=O)c1nc(-c2cccs2)cc(C(F)(F)F)n1 | inactive: 0.729%
38 | CCOC(=O)c1ccc(NC(=O)Nc2c[nH]c(=O)[nH]c2=O)cc1 | inactive: 5.7%
39 | Cc1ccc(CNC(=O)c2cc3c(s2)-c2ccccc2SC3)cc1 | inactive: -8.2%
40 | CCOC(=O)c1cc(-c2ccccc2)n(CC(=O)NC(C)c2ccccc2)c1C (centres undefined) | inactive: -15.6%
41 | CC(C)COc1ccc(C(=O)Nc2cccc(-c3nc4ccccc4[nH]3)c2)cc1 | inactive: 21.2%
42 | CCc1ccc(OC(C)C(=O)N2CCC(c3nc4ccccc4s3)CC2)cc1 (centres undefined) | inactive: -6.9%
43 | O=C(NC1(C(F)(F)F)C(=O)Nc2c1c(=O)[nH]c(=O)n2CCc1ccccc1)c1ccc(Cl)cc1Cl (centres undefined) | inactive: 2.95%
44 | COc1ccccc1-c1cc2nc(C)c(CCC(=O)Nc3ccc(Br)c(C)c3)c(C)n2n1 | inactive: -0.898%
45 | CCn1cc(C(=O)N2CCN(c3cccc(C(F)(F)F)c3)CC2)c2cc(OC)c(OC)cc2c1=O | inactive: 2.75%
46 | CCOc1ccccc1NC(=O)C1CCCN(S(=O)(=O)c2c(C)[nH]c(=O)[nH]c2=O)C1 (centres undefined) | inactive: 1.44%
47 | CCOc1ccc(/C=C(\C#N)c2nc3ccccc3c(=O)[nH]2)cc1OC | inactive: 5.01%
48 | O=C(CSc1nnc(-c2ccccc2)c(-c2ccccc2)n1)NC1CCCCC1 | inactive: -10.2%

Row | Compound | activity change, negative = inhibition
49 | CCOC(=O)N1CCc2c(sc(NCc3cccc(F)c3)c2C(=O)Nc2ccccc2OCC)C1 | inactive: -2.44%
50 | Cc1nc(N2C(=O)c3oc4ccccc4c(=O)c3C2c2cccc(OCCC(C)C)c2)sc1C (centres undefined) | inactive: -1.8%
51 | Cc1ccc(N2CC(NC(=O)Cc3cccs3)CC2=O)cc1C (centres undefined) | inactive: -1.17%
52 | COC(=O)c1nnn(CC(=O)NC(=O)Nc2cccc(C)c2C)c1C(=O)OC | inactive: -5.65%
53 | CCc1nc2ccc(C(=O)N3CCN(c4ccccc4)CC3)cc2nc1CC | inactive: -7.62%
54 | COc1ccc2c(c1)CCc1c(C(=O)Nc3ccc(F)c(Cl)c3)noc1-2 | inactive: -1.11%
55 | CCOc1cc(-c2nnc(SCC(=O)Nc3ccc(F)c(F)c3)nc2-c2ccc(OC)c(OCC)c2)ccc1OC | inactive: 3.63%
56 | COc1ccc(S(=O)(=O)N(CCc2ccccc2)CC(=O)Nc2ccc(C)c(C)c2)cc1OC | inactive: 9.87%
57 | CCC(=O)Nc1nnc(SCc2cc(=O)c3cc(C)ccc3[nH]2)s1 | inactive: 8.37%
58 | O=C(Nc1cccc(-c2nc3ccccc3o2)c1)c1ccc(-c2ccc(Br)cc2)o1 | inactive: -13%
59 | Cc1c(C(=O)OC2CCCC2)[nH]c2c1C(=O)CC(c1ccc(Cl)cc1)C2 (centres undefined) | inactive: -7.33%
60 | O=S(=O)(Nc1ccc(-c2ccc(N3CCCC3)nn2)cc1)c1ccc(Cl)cc1 | inactive: -2.6%
61 | CC(=O)N1CCc2c(sc3c2c(=O)n(-c2ccccc2)c(=O)n3CC(=O)Nc2cccc(C)c2)C1 | inactive: 1.48%
62 | CCOc1ccc(CNS(=O)(=O)c2c(C(=O)N3CCC(C)CC3)c(C)n(C)c2C)cc1OC | inactive: 0%
63 | CC(C)N(C(=O)CSc1nc2ccc(Cl)cc2[nH]1)c1ccccc1 | inactive: -2.57%
64 | COc1ccccc1CNC(=O)CCCc1nnc2n(CC(C)C)c(=O)c3sccc3n12 | inactive: -4.73%
65 | COc1ccccc1CNC(=O)CCC1N=C2c3ccccc3N=C(SCc3cccc(Cl)c3)N2C1=O (centres undefined) | inactive: -21.2%
66 | O=C(c1ccc(F)cc1)N1c2nc(-c3ccco3)nn2C2(CCCCC2)[C@@H]2CCCC[C@@H]21 | inactive: 0.0686%
67 | COc1ccc(-c2cc3nc(-c4ccc(C)cc4)cc(C(F)(F)F)n3n2)cc1 | inactive: -0.667%
68 | CCOc1ccc(OCC)c(NS(=O)(=O)c2cc(Br)cc3c2N(C(C)=O)C(C)C3)c1 (centres undefined) | inactive: -15.2%
69 | CCCCN(CC)CCNC(=O)c1cc2c(=O)oc3ccc(C)cc3c2s1 | inactive: -9.35%
70 | CCn1c(=O)c2cc(C(=O)NCCc3cc(OC)ccc3OC)sc2c2ccccc21 | inactive: 3.15%
71 | CCc1ccc2oc(-c3ccc(NC(=O)c4ccc(OC)c(Br)c4)cc3)nc2c1 | inactive: -0.648%
72 | Cc1ccc(-n2c(C)nc3c(cnn3-c3ccccc3C)c2=O)cc1F | inactive: -19.5%

Row | Compound | activity change, negative = inhibition
73 | O=C(NCc1cccc(F)c1)c1ccc(-n2cnc3cccnc32)cc1 | inactive: 1%
74 | Cn1cc(S(=O)(=O)c2ccccc2)c(=O)c2cc(F)c(N3CCN(c4ccccc4)CC3)cc21 | inactive: 0.453%
75 | Cc1cccc(-n2c(-c3ccccc3)cn3c4c(=O)[nH]c(=O)n(C)c4nc23)c1 | inactive: -26.9%
76 | Cc1ccc(-c2cc(C(F)(F)F)n3nc(C(=O)Nc4ccc(Cl)c(C(F)(F)F)c4)cc3n2)cc1 | inactive: 1.22%
77 | Cc1cccc(C)c1OCC(=O)Nc1nc(-c2ccc(Br)cc2)ns1 | inactive: 0.135%
78 | Cc1cc(C)c(Cn2c3ccccc3c3cnn(CC(=O)N4CCCCCC4)c(=O)c32)c(C)c1 | inactive: 0.985%
79 | O=C(Cn1c(=O)n(-c2cccc(Cl)c2)c(=O)c2sc3ccccc3c21)N1CCCC1 | inactive: -11.3%
80 | CCOc1ccc(C(=O)Nc2c(C(=O)Nc3ccccc3F)oc3ccccc23)cc1OCC | inactive: -4.65%
81 | CCN(CC)CCCNC(=O)C1CCN(S(=O)(=O)CC)CC1 | inactive: 3.56%
82 | CC(=O)c1ccc(NC(=O)c2c3c(nc4ccccc24)C(=O)N(C2CCCCC2)C3)cc1 | inactive: -24.3%
83 | O=S1(=O)c2ccccc2N(Cc2ccccc2)c2ccccc21 | inactive: -7.3%
84 | COC(=O)c1cc(C)nc2c1c(=O)nc(SCc1ccccc1F)n2C1CC1 | inactive: 7.53%
85 | CC1CCN(Cc2c(O)ccc3c(=O)c(-c4cccc(Cl)c4)c(C(F)(F)F)oc23)CC1 | inactive: 8.34%
86 | CC(=O)c1cc2c(cc1NC(=O)c1c(C)nn(-c3ccc(C)cc3)c1-n1cccc1)OCO2 | inactive: 1.04%
87 | Cc1ccc(S(=O)(=O)Cc2nc(-c3ccc(C(=O)NCc4ccccc4)cc3)oc2C)cc1 | inactive: -3.91%
88 | COc1ccc(OCCn2cc(C(=O)C3CCCCC3)c3ccccc32)cc1 | inactive: 0.18%
89 | O=C(Nc1cccc(Br)c1)N1CCC(CN2CCCCC2)CC1 | inactive: 0.266%
90 | Cc1ccc(NC(=O)CSc2nc3ncccc3[nH]2)cc1F | inactive: -8.37%
91 | COc1cccc(N2CCN(C(=O)c3cnn(C(C)(C)C)c3C3CCN(C(=O)OC(C)(C)C)CC3)CC2)c1 | inactive: 5.97%
92 | O=C(c1ccc2c(c1)CCN2S(=O)(=O)c1ccccc1)N1CCN(c2ccc(F)cc2)CC1 | inactive: -10.3%
93 | O=C(NCc1ccc(Cl)cc1)C(=O)Nc1ccc(Br)cc1 | inactive: 5.41%
94 | CCc1cccc(NC(=O)Cn2c(=O)n(Cc3ccccc3)c(=O)c3c2c2cc(OC)ccc2n3C)c1 | inactive: -4.93%
